Variants at the background level are over-represented here.
B1: TPR 5TU (parent)
chain: GGAUCUUCUCGAUCUAACAAAAAAGACAAAUCUGCCACAAAGCUUGAGAGCAUCUUCGGAUGCAGAGGCGGCAGCCUUCGGUGGCGCGAUAGCGCCAACGUUCUCAACUAUGACACGCAAAACGCGUGCUCCGUUGAAUGGAGUUUAUCAUG

Variants of: B1
Experiment: polymerase ribozyme fitness, log enrichment relative to wild type (log ratio); higher = more active; in vitro selection for triplet polymerase activity
Outline: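 After PCR construction and transcription, each subunit's mutant library from a heterodimeric triplet polymerase ribozyme was annealed with a biotinylated primer, the partner subunit and triplets. Incubation was frozen, at −7 °C, and extended constructs were gel-excised, bound to streptavidin beads and amplified by RT-PCR, in one selection round done in triplicate. Fitness is the logarithm of a genotype's enrichment divided by that of the wild type, from inverse-variance-weighted replicate averages of Illumina-sequenced inputs and outputs. The base of the logarithm is 2, and genotypes needed ≥10 input reads and ≥1 read per output.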

Polymerase ribozyme fitness (log ratio), ≤ -4.2:
GGAUCUUCUCGAUCUAACACAUAAGACAAAGCUGCCACAAAGCUUGAGAGCAUCUUCGGAUGCAGAGGCGGCAGCCUUCGGUGGCGCGAUAACGACAACGUUCUCAACUAUGACACGCAAAACGCGUGCUCCGUUGAAUGUAGUUUAUCAUG
GGAUCUUCUCGAUCUAACACAACAGACAAAUCUGCCACAAAGCUUGAGAGUAUCUUCGGAUGCAGAGGCGGCAGCCUUCGGUUGUGCGAUAGCGCCAAUGUUCUCAACUAUGACACGGAAAACGCGUGCUCCGUUGAAUGGAGUUUAUCAUG
GGAUCUUCUCGAUCUAACACAAAUGACAAAUCUGCCACAAAGCUUGAGAGAAUCUUCGGAUGCAGAGGCGGCAGCCUUCGGUGGCGCAAUAGCGCGAACGUUCUCAACUAUGACACGCAAAACGCGUGCUCCGUUGAAUGGAGUUUAUCAUG
GGAUCUUCUCGAUCUAACACAAAAGUCAAAUCUGCCACAAAGCUUGAGAGCAUAUUCGGAUGCAGAGGCGGCAGCCUUCGGAGGCGCGAUAGCGGAAACGUUGUCAACUAUGAAACGCAAAACGCGUGCUCCGGUAAAUGGAGUUUAUCAUG
GGAUCUUCUCGAUCUAACACAAAAGACGAAACUGCCACAAAGCUUGAGAGCAGCUUCGGAUGCAGAGGCGGCAGCCUUCGGUGGCGUGAUAGCGCCAACGUUCUCAACUAUGACACGCAAAACGCGUGCUCCGAUGAAUGGAGUUUAUCAUG
GGAUCUUCUCGAUCUAACACAAAAGACGAAUCUGCCACAAAGCUUGAGAGCAUCUUCGGAUGCAGAGGCGGCAGCCUUCGGGGUCGCGAUAGCGCCAACGUUCUCAACUCUGACACGCAAAACGCGUGCUCCGUUGAAUGGAGUUUAUCAUG
GGAUCUUCUCGAUCUAACACAAAAGACACAUCUGCCACAAAGCUUGAGCGCAUCUUCGGAUGCAGAGGCGGCAGCCUUCGGUGGCGAGAUAGCUCCAACGUUCUCAACUAUGACACGCAAAACGCGUGCUCCUUUGAAUGGAGUUUAUCAUG
GGAUCUUCUCGAUCUAACACAAAAGACACAUCUGACACAAAGCUUGAGAGCAUCUUCGGAUGCAGAGGCGGCAGCCUUCGGUGGCGUGAUAGCGCCAACGUUCUCAACUAUGACACGUAAAACGCGUGCUCCGUUGAAUUGAGUUUAUCAUG
GGAUCUUCUCGAUCUAACACAAAAGACAUAUCUGCCACAAAGCUUGCGACCAUCUUCGGAUGCAGAGGCCGCAGCCUUCGGUGACGCGAUAGCGCCAACGUUCUCAACUAUGACACGCAAAACGCGUGCUCCGUUGAAUGGAGUUUAUCAGG
GGAUCUUCUCGAUCUAACACAAAAGACAAAUCUGCCCCAAAGCUAGAGAGCAUCUUCGGAUGCAGAGGCGGCAGCCUUCGGUGGCGCUAUAGCGCAAACGUCAUCAACCAUGACACGCAGAACGAGUGCUCCGUUGAAUGGAGUUUAUCAUG
GGAUCUUCUCGAUCUAACACAAAAGACAAAUCUGCCACCAAGCUUGAGAGCAUCUUCGGAUGCAGAGGCGGCGGCCUUCGGUAGCGCGAUUGCGCCAACGUUCUCAACUAUGACACGCAAAACGCGUGCUCCGUUGAAUGGAGUUUAUCAUG
GGAUCUUCUCGAUCUAACACAAAAGACAAAUCUGCCACAGAGCUUGAGAGCAUCUUCGGAGGCAGAGGCGGGAGCCUUCGAUGGCGCGAUAGCGCCAACGUUCUCAACUAUGACACGCAAAACGCGUGCUCCGUUGAAUGUAGUUUAUCCUG
GGAUCUUCUCGAUCUAACACAAAAGACAAAUCUGCCACAACGCUUGAGCGCAUAUACGGAUGCAGAGGCGGCAGCCGUCGGUGGCGCGAUAGAGCCAACGUUAUCAACUAUGACACGCAAAACGCGUGCUCCGUUGAAUGGAGUUUAUCAUG
GGAUCUUCUCGAUCUAACACAAAAGACAAAUCUGCCACAACGCUUGAGAGCAUCUUCGGAUGCAGAGGCGGCAGCCUUCGGUGGCGCGAUAGCGCCAACGUUCUCAAAUAUGACACGCAAAACGCGUGCUCCGUUGAAUGGAGUUUAUCAUG
GGAUCUUCUCGAUCUAACACAAAAGACAAAUCUGCCACAAAGCUUGAGAGCAUCUUCGGAUGCAGAGGCGGCCGCCUUCGAUGGCGCGACACCGCCAACGUUCGCAACUAUGACACGCAAAACGCGUGCUCCGUUGAAUGGAGUUUAUCAUG
GGAUCUUCUCGAUCUAACACAAAAGACAAAUCUGCCACAAAGCUUGAGAGCAUCUUCGGAUGCAGAGGCGGCGGCCUUCGGUGGCGGGAUAGCGCCAACGUUCUCAACUAUGAUACGCAAAACGCGUGCUCCGUUGAAUGAAGUUUAUCAUG
GGAUCUUCUCGAUCUAACACAAAAGACAAAUCUGCCACAAAGCUUGAGAGCAUCUUCGGAUGCAGAGGCGGCAGCCUUCGGUGGCGCGAUCGCGUCAACGUUCUCAACUAUGACCCGCAAAACGCGUGCUCCGUUGAAUGGAGUUUAUCAUG
GGAUCUUCUCGAUCUAACACAAAAGAUAAAUCUGCCACAAAGCUUGGGAGCAUCUUCGGAUGCAGAGGCGGCGGCCGUCGGUGUCGCGAUAGCGCCAACGUUCUCAACUAUGAUACGCAAAACGCGUGCUCCGUUGAAUGGAGUUUAUAAUG
GGAUCUUCUCGAUCUAACACAAAAGACAAAUCUGACACAAAGCUUGAGAGCAUCUUCGGAUGCAGAGGCGGCAGCCUUCGGUGGCGCGAUAGCGUCAACGUUCUCAACUAUGACACGCACAACGAGUGCUCCGUUGAAUGGAGUUUAGCAUG

— the RNAGym collection of RNA variant scans (doi:10.1073/pnas.2313332121)
